Test results: PubChem BioAssay AID761 (NMMLSC, 2007)
The whole screen tested about 190,000 compounds, of which about 400 (0.21%) were called active. Inconclusive results, whose numbers are uncertain, are shown with a selection of clear calls.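 How the source made its calls: active means percent activity GTP binding at least 20 points away from the 100% baseline, either down as inhibitor or up as activator; inconclusive means compound flagged as likely green fluorescent from well-wide comparison; inactive means the rest.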

The compounds below were run against Cell division control protein 42 homolog (Homo sapiens) (UniProt P60953) (assay: wildtype Cdc42 fluorescent GTP binding changes, either direction – biochemical, multiplex bead flow cytometry, Bodipy-GTP, primary screen (AID 761;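 further: median bead fluorescence of bound Bodipy-FL-GTP at 100 nM; 0% = excess unlabeled GTP control and 100% = no compound control; below 100% means less GTP binding so inhibitor and above means activator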)). Settings: GST-Cdc42 beads, at 10 µM, actives lie on both sides.
Sequence of UniProt P60953 (P60953 whole entry, looked up): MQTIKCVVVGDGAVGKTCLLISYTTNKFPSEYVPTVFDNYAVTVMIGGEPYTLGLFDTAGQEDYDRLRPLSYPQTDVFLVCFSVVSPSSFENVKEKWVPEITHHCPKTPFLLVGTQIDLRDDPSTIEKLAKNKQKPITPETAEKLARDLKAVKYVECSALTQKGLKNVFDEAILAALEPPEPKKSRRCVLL

SMILES | percent activity (GTP binding)
CC(=O)c1c(C)[nH]c(C(=O)N2CCc3ccccc3C2)c1C | inconclusive: 115%
CC(=O)N1CCc2cc(S(=O)(=O)NC(C(=O)NCc3ccccc3)C(C)C)ccc21 (stereo not drawn) | inconclusive: 103%
CCOc1ccc(NC(=S)N(CC)Cc2ccccc2)cc1 | inactive: 97%
COc1cc(C(=O)OCC(=O)Nc2cc(C)on2)cc(OC)c1OC | inconclusive: 105%
O=S(=O)(Nn1cnnc1)c1ccc(F)cc1 | inactive: 95%
CCCC(=O)n1nc(-c2cccnc2)nc1NCc1ccccc1 | inactive: 97%
O=c1c2c3c(sc2n(CCN2CCOCC2)c(=O)n1Cc1ccco1)CCCCC3 | inconclusive: 105%
O=c1cc(CSc2nnnn2-c2ccccc2)nc2sccn12 | inconclusive: 89%
CCN(CC)c1nc(=S)nc(NC(C)(C)C)[nH]1 | inactive: 102%
C=CCOc1c(OC)cc(Cl)cc1C1NC(=O)NC(C)=C1C(C)=O (stereo not drawn) | inconclusive: 93%
Cc1c(N2C(=O)/C(=C\c3ccc(N(C)C)cc3)N(C)C2=S)c(=O)n(-c2ccccc2)n1C | inactive: 102%
Nn1c(SCc2nc3ccccc3[nH]2)nnc1-c1ccccc1 | inconclusive: 94%
CCN(CC)S(=O)(=O)c1ccc(C(=O)NCc2cccs2)cc1 | inconclusive: 87%
Nc1nc2c(c(=O)[nH]1)C(c1cccc3ccccc13)C1=C(N2)c2ccccc2C1=O (stereo not drawn) | active: 79%
CCCS(=O)(=O)NCCc1cc2c(C)ccc(C)c2[nH]c1=O | inconclusive: 93%
CC12CCC(C/C1=N/OC(=O)c1cccc([N+](=O)[O-])c1)C2(C)C (stereo not drawn) | inactive: 100%
COc1ccccc1OP(=O)(O)Oc1ccccc1OC | inconclusive: 96%
CC(C)Cn1c(SCC(=O)N2CCN(C(=O)c3ccco3)CC2)nc2ccccc2c1=O | inconclusive: 93%
O=C(NCc1cccnc1)/C(=C\c1ccc(-c2ccc(Cl)c(Cl)c2)o1)S(=O)(=O)c1ccccc1 | inactive: 95%
Cc1c(NC(=O)OCCNC(=O)COc2c(Cl)cccc2Cl)sc(=S)n1C | inactive: 105%
O=C(CSc1nncs1)NC1CCCc2ccccc21 (stereo not drawn) | inconclusive: 94%
CCNC(=S)N=Nc1c(O)[nH]c2ccc([N+](=O)[O-])cc12 | active: 65%
CCCn1c(N/N=C(C)\C=C\c2ccccc2)nc2c1c(=O)[nH]c(=O)n2C | inactive: 102%
Cc1ccc([N+](=O)[O-])cc1NC(=O)C(Sc1ccccc1)c1ccccc1 (stereo not drawn) | inactive: 101%

SMILES | percent activity (GTP binding)
COc1cccc(CC(NC(C)=O)C(=O)NC2CCN(C(=O)C3CC3)CC2)c1OC (stereo not drawn) | inactive: 98%
CSc1ncccc1C(=O)Nc1nc2ccc(F)cc2s1 | inconclusive: 91%
CN1OC(CC(=O)O)N(c2ccc(Cl)cc2)C1=O (stereo not drawn) | inconclusive: 103%
COc1cc(Cl)c(C)cc1NC(=O)c1ccc(NS(=O)(=O)c2ccc(F)c(F)c2)cc1 | inconclusive: 90%
CCOC(=O)c1c(NC(=O)CSc2nc3ccccc3c(=O)n2-c2ccccc2)sc(C(C)=O)c1C | inconclusive: 105%
O=C1c2ccccc2C(=O)N1CCCCN(C(=O)c1cc2ccccc2oc1=O)c1ccc(Cl)cc1 | active: 43%
Fc1cccc(Cl)c1CSc1ccc2nnc(-c3ccccn3)n2n1 | inconclusive: 94%
Cc1onc(-c2ccccc2Cl)c1C(=O)N1CCN(Cc2ccc3c(c2)OCO3)CC1 | inconclusive: 98%
COC(=O)CCc1sc(NC2CCCCC2)nc1-c1ccc(OC)cc1 | inconclusive: 97%
CCOC(=O)c1c2c3c(c(Cl)ccc3[nH]c1=O)C(=O)c1ccccc1-2 | active: 41%
Cc1ccc(CNC(=O)C2CCC(CNc3nc(=S)[nH]c4ccccc34)CC2)cc1 (stereo not drawn) | inconclusive: 93%
Cc1cc(C(=O)N=Nc2c(O)n(C(C)C)c3ccccc23)n[nH]1 | inactive: 94%
CCC(Br)C(=O)Nc1ccc(OC)cc1 (stereo not drawn) | inactive: 100%
CCCCCc1nc(-c2nonc2N)no1 | inconclusive: 92%
O=C(Nc1ccccc1Cl)N1CCN(c2ccc3nnc(-c4ccc(F)cc4)n3n2)CC1 | inconclusive: 94%
CCC(CC)C(=O)c1c[nH]c(C(=O)N2CCN(c3ccccc3)CC2)c1 | inactive: 97%
NC(=S)N=Nc1c(O)[nH]c2cc(F)c(F)cc12 | inactive: 91%
CCCCNC(=S)Nc1ccc(-c2nc3ccc(C)cc3s2)cc1 | inconclusive: 107%
O=C(Nc1ccc(Cl)cc1)N1CCN(c2ccc3nnc(-c4ccc(F)cc4)n3n2)CC1 | inconclusive: 79%
CCN=C1SC(C(=O)Nc2cccc(C)c2)CC(=O)N1CC (stereo not drawn) | inconclusive: 106%
CC(=O)c1c(C)[nH]c(C(=O)O)c1C | inconclusive: 91%
CNC(=S)NNC(=O)Cc1ccc(O)cc1 | inconclusive: 105%
N#CCCN1CCN(C(=S)c2ccc(-c3cc(Cl)ccc3Cl)o2)CC1 | inconclusive: 92%
Cc1cc(N2CCCC2=O)c(N)cc1N | inconclusive: 88%

SMILES | percent activity (GTP binding)
COc1ccc(NC(=O)c2sccc2C)cn1 | inactive: 98%
Cc1ccc(C(=S)N2CCN(Cc3ccccc3)CC2)s1 | inconclusive: 93%
CCOC(=O)c1cc(C)n(-c2ccc(OC)c(OC)c2)c1C | inconclusive: 85%
Cc1c(Cl)cccc1NS(=O)(=O)c1ccc2c(c1)C1C=CCC1C(c1ccc(C(=O)O)cc1)N2 (stereo not drawn) | active: 78%
O=C(Nc1nc(-c2cccs2)cs1)c1cc2ccccc2oc1=O | inconclusive: 74%
CCCC(=O)Nc1cccc(NC(=O)c2ccc3c(c2)OCCO3)c1 | inactive: 99%
COc1ccc(-c2nnc3ccc(SCC(=O)N4CCCCC4)nn23)cc1OC | inconclusive: 95%
O=C1S/C(=C/c2ccc(N3CCOCC3)o2)C(=O)N1Cc1ccc(F)cc1 | inconclusive: 111%
O=S(=O)(Cc1cc(N2CCOCC2)nc(-c2ccccn2)n1)c1ccccc1 | inconclusive: 93%
CCOC(=O)c1[nH]ncc1CN1CCN(Cc2ccccc2)C(CCO)C1 (stereo not drawn) | inactive: 100%
O=C(CNc1ccc2c(c1)OCO2)N/N=C\c1ccccc1Cl | inconclusive: 89%
CCc1ccc(OCC(=O)NC(NC(=S)Nc2ccc(Cl)cc2)C(Cl)(Cl)Cl)cc1 (stereo not drawn) | inactive: 99%
CCn1c2ccccc2c2cc(NC(=S)N3CCOCC3)ccc21 | inconclusive: 108%
Oc1ccccc1-c1n[nH]c(=S)n1Cc1ccco1 | inactive: 102%
Cc1cc(N2CCOCC2)nc2ccc(NC(=O)CCC(=O)N3CCCC(C)C3)cc12 (stereo not drawn) | inconclusive: 108%
O=C(C1=C[C@H](C2CC2)C[C@H](OCc2ccc(CO)cc2)O1)N1CCOCC1 | inactive: 97%
O=C(CSc1nc(O)c(Cc2ccccc2)c(=O)[nH]1)Nc1nc2c(s1)CCCC2 | inconclusive: 90%
OC(CON=C1c2ccccc2-c2ccccc21)CN1CCNCC1 (stereo not drawn) | inconclusive: 98%
COc1c(Br)cc2c(C)c(C(=O)O)oc2c1Br | inconclusive: 90%
Cc1ccc(F)cc1CNC(=O)c1cc(COc2ccc3ncccc3c2)on1 | inconclusive: 95%
O=C(CSc1cccc[n+]1[O-])Nc1cccc(Oc2ccccc2)c1 | inactive: 92%
Cc1ccccc1NC(=O)OCc1cccnc1Sc1ccc(Cl)cc1 | inconclusive: 92%
CCc1sc(C(=O)Nc2ccccc2N2CCOCC2)cc1C | inactive: 96%
CSCC[C@@H](C(=O)NCc1cccs1)N1Cc2ccccc2C1=O | inconclusive: 106%

SMILES | percent activity (GTP binding)
CCC(=O)N1CCN(c2ccc(NC(=S)NC(=O)c3ccc(OC)c([N+](=O)[O-])c3)cc2)CC1 | inconclusive: 96%
O=c1c2ccccc2nc(SCc2nc(-c3ccccc3)no2)n1-c1ccc(F)cc1 | inconclusive: 99%
CC(C)C(OC(=O)/C=C/c1ccc2c(c1)OCO2)C(=O)NC(N)=O (stereo not drawn) | inactive: 94%
CCOCc1[nH]c(=S)[nH]c(=O)c1Cc1ccc(OC(C)C)cc1 | inconclusive: 92%
Cc1nc(NC(=O)CSc2nnc(-c3ccc4c(c3)OCO4)o2)c(Cl)cc1Cl | inconclusive: 103%
O=C(NCc1ccccn1)C(=O)C1C(=O)Nc2ccccc21 (stereo not drawn) | inactive: 95%
CC(C)c1ccc(CN2CC(C(=O)Nc3ccccc3)CC2=O)cc1 (stereo not drawn) | inconclusive: 90%
O=C(Cn1nnc2c(cnn2-c2ccccc2)c1=O)NCc1cccs1 | inconclusive: 91%
Cc1ccc(C(=O)Nc2cccc([N+](=O)[O-])c2)cc1S(=O)(=O)Nc1ccc(C(=O)O)cc1 | inconclusive: 87%
NC(=O)CSc1nnc(SCc2ccc(F)cc2)s1 | inactive: 98%
O=C(NCCc1c[nH]c2ccccc12)OCCSS(=O)(=O)O | inactive: 85%
Cc1ccc(NC(=O)CO/N=C/c2ccc(N(C)C)cc2)cc1 | inconclusive: 110%
Cc1cc(C(=O)CCl)c(C)n1-c1c(C)n(C)n(-c2ccccc2)c1=O | inactive: 98%
COc1ccc(-c2cc(CNS(=O)(=O)c3ccccc3)on2)cc1 | inactive: 94%
CCN(CC)C(=O)c1oc2ccc(S(=O)(=O)N3CCCCCC3)cc2c1C | inconclusive: 91%
C=CCn1c(SCC(N)=O)nnc1-c1cccc(Br)c1 | inconclusive: 104%
CCCC1CCC(=C(C#N)C(N)=O)CC1 (stereo not drawn) | inactive: 104%
O=c1cc(CO)oc(CN2CCN(c3ccccc3)CC2)c1O | inconclusive: 105%
CCOC(=O)c1sc2ncn(/N=C/c3cccnc3)c(=O)c2c1C | inconclusive: 108%
CC(=O)Nc1ccc(N=Cc2c(O)c(C(=O)Nc3ccccc3)cc3ccccc23)cc1 | inconclusive: 137%
Cn1ccc(C(=O)N2CCCc3ccccc32)n1 | inactive: 100%
